In the supplement of paper PMC12230231 one finds enrichment data, which are given here for 12 sequences.

± gives the standard deviation of the averaged measurements. Restriction of a single-cycle SIVsab GFP reporter by TRIM5α v1-loop variants in CRFK cells. Human variants: read share among cells still uninfected after two challenges over input, higher = gained restriction. Rhesus variants: share among infected cells over input, higher = lost restriction. Reporter dose not given per row. No active / inactive call per row; the paper calls a change when both replicates lie above its controls (mean + 2 SD of stop or wild-type variants, or the top frameshift score). Residues outside the varied loop are taken from Swiss-Prot. The paper reads the human single-substitution scores as noise; they and the rhesus combinations repeat poorly (rank correlation 0.3 to 0.4), indel scores repeat only for the top variants, rhesus substitutions well (0.9).

The data set concerns SIVsab (simian immunodeficiency virus of sabaeus monkeys), single-cycle GFP reporter, in CRFK cells. Briefly: enrichment among uninfected cells over input (fold); higher = stronger restriction. Conditions: library: human / rhesus combinations. Here is the method:
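Pools of CRFK cells expressing variants of the TRIM5α v1 loop were challenged with the single-cycle reporter, sorted by GFP and sequenced; mean of two replicates.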
Consider “MASGILVNVKEEVTCPICLELLTQPLSLDCGHSFCQACLTANHKKSMLDKGESSCPVCRISYQPENIRPNRHVANIVEKLREVKLSPEGQKVDHCARHGEKLLLFCQEDGKVICWLCERSQEHRGHHTFLTEEVAREYQVKLQAALEMLRQKQQEAEELEADIREEKASWKTQIQYDKTNVLADFEQLRDILDWEESNELQNLEKEEEDILKSLTNSETEMVQQTQSLRELISDLEHRLQGSVMELLQGVDGVIKRTENVTLKKPETFPKNQRRVFRAPDLKGMLEVFRELTDVRRYWVDVTVAPNNISCAVISEDKRQVSSPKPQIIYGAPGTLFTFQSFTNFNYCTGILGSQSITSGKHYWEVDVSKKTAWILGVCAGFQPDAMCNIEKNENYQPKYGYWVIGLEEGVKCSAFQDSSFHTPSVPFIVPLSVIICPDRVGVFLDYEACTVSFFNITNHGFLIYKFSHCSFSQPVFPYLNPRKCGVPMTLCSPSS [human TRIM5α, 330-340 = GAPGTLFTFQSFT]”, for which the enrichment came out at 0.479 ± 0.32.
Then “MASGILVNVKEEVTCPICLELLTQPLSLDCGHSFCQACLTANHKKSMLDKGESSCPVCRISYQPENIRPNRHVANIVEKLREVKLSPEGQKVDHCARHGEKLLLFCQEDGKVICWLCERSQEHRGHHTFLTEEVAREYQVKLQAALEMLRQKQQEAEELEADIREEKASWKTQIQYDKTNVLADFEQLRDILDWEESNELQNLEKEEEDILKSLTNSETEMVQQTQSLRELISDLEHRLQGSVMELLQGVDGVIKRTENVTLKKPETFPKNQRRVFRAPDLKGMLEVFRELTDVRRYWVDVTVAPNNISCAVISEDKRQVSSPKPQIIYGAPGTLFTFQSFVNFNYCTGILGSQSITSGKHYWEVDVSKKTAWILGVCAGFQPDAMCNIEKNENYQPKYGYWVIGLEEGVKCSAFQDSSFHTPSVPFIVPLSVIICPDRVGVFLDYEACTVSFFNITNHGFLIYKFSHCSFSQPVFPYLNPRKCGVPMTLCSPSS [human TRIM5α, 330-340 = GAPGTLFTFQSFV]”, with 0.0828 ± 0.12; and “MASGILVNVKEEVTCPICLELLTQPLSLDCGHSFCQACLTANHKKSMLDKGESSCPVCRISYQPENIRPNRHVANIVEKLREVKLSPEGQKVDHCARHGEKLLLFCQEDGKVICWLCERSQEHRGHHTFLTEEVAREYQVKLQAALEMLRQKQQEAEELEADIREEKASWKTQIQYDKTNVLADFEQLRDILDWEESNELQNLEKEEEDILKSLTNSETEMVQQTQSLRELISDLEHRLQGSVMELLQGVDGVIKRTENVTLKKPETFPKNQRRVFRAPDLKGMLEVFRELTDVRRYWVDVTVAPNNISCAVISEDKRQVSSPKPQIIYGAPGTLFTFQSLTNFNYCTGILGSQSITSGKHYWEVDVSKKTAWILGVCAGFQPDAMCNIEKNENYQPKYGYWVIGLEEGVKCSAFQDSSFHTPSVPFIVPLSVIICPDRVGVFLDYEACTVSFFNITNHGFLIYKFSHCSFSQPVFPYLNPRKCGVPMTLCSPSS [human TRIM5α, 330-340 = GAPGTLFTFQSLT]”, with 0.117 ± 0.083.
In the case of “MASGILVNVKEEVTCPICLELLTQPLSLDCGHSFCQACLTANHKKSMLDKGESSCPVCRISYQPENIRPNRHVANIVEKLREVKLSPEGQKVDHCARHGEKLLLFCQEDGKVICWLCERSQEHRGHHTFLTEEVAREYQVKLQAALEMLRQKQQEAEELEADIREEKASWKTQIQYDKTNVLADFEQLRDILDWEESNELQNLEKEEEDILKSLTNSETEMVQQTQSLRELISDLEHRLQGSVMELLQGVDGVIKRTENVTLKKPETFPKNQRRVFRAPDLKGMLEVFRELTDVRRYWVDVTVAPNNISCAVISEDKRQVSSPKPQIIYGAPGTLFTFQSLVNFNYCTGILGSQSITSGKHYWEVDVSKKTAWILGVCAGFQPDAMCNIEKNENYQPKYGYWVIGLEEGVKCSAFQDSSFHTPSVPFIVPLSVIICPDRVGVFLDYEACTVSFFNITNHGFLIYKFSHCSFSQPVFPYLNPRKCGVPMTLCSPSS [human TRIM5α, 330-340 = GAPGTLFTFQSLV]”, the enrichment amounted to 0.205 ± 0.13.
Then “MASGILVNVKEEVTCPICLELLTQPLSLDCGHSFCQACLTANHKKSMLDKGESSCPVCRISYQPENIRPNRHVANIVEKLREVKLSPEGQKVDHCARHGEKLLLFCQEDGKVICWLCERSQEHRGHHTFLTEEVAREYQVKLQAALEMLRQKQQEAEELEADIREEKASWKTQIQYDKTNVLADFEQLRDILDWEESNELQNLEKEEEDILKSLTNSETEMVQQTQSLRELISDLEHRLQGSVMELLQGVDGVIKRTENVTLKKPETFPKNQRRVFRAPDLKGMLEVFRELTDVRRYWVDVTVAPNNISCAVISEDKRQVSSPKPQIIYGAPGTLFTFQTFTNFNYCTGILGSQSITSGKHYWEVDVSKKTAWILGVCAGFQPDAMCNIEKNENYQPKYGYWVIGLEEGVKCSAFQDSSFHTPSVPFIVPLSVIICPDRVGVFLDYEACTVSFFNITNHGFLIYKFSHCSFSQPVFPYLNPRKCGVPMTLCSPSS [human TRIM5α, 330-340 = GAPGTLFTFQTFT]”, with 0.0745 ± 0.0049.
Regarding “MASGILVNVKEEVTCPICLELLTQPLSLDCGHSFCQACLTANHKKSMLDKGESSCPVCRISYQPENIRPNRHVANIVEKLREVKLSPEGQKVDHCARHGEKLLLFCQEDGKVICWLCERSQEHRGHHTFLTEEVAREYQVKLQAALEMLRQKQQEAEELEADIREEKASWKTQIQYDKTNVLADFEQLRDILDWEESNELQNLEKEEEDILKSLTNSETEMVQQTQSLRELISDLEHRLQGSVMELLQGVDGVIKRTENVTLKKPETFPKNQRRVFRAPDLKGMLEVFRELTDVRRYWVDVTVAPNNISCAVISEDKRQVSSPKPQIIYGAPGTLFTFQTFVNFNYCTGILGSQSITSGKHYWEVDVSKKTAWILGVCAGFQPDAMCNIEKNENYQPKYGYWVIGLEEGVKCSAFQDSSFHTPSVPFIVPLSVIICPDRVGVFLDYEACTVSFFNITNHGFLIYKFSHCSFSQPVFPYLNPRKCGVPMTLCSPSS [human TRIM5α, 330-340 = GAPGTLFTFQTFV]”, the enrichment came to 0.12 ± 0.076.
In the case of “MASGILVNVKEEVTCPICLELLTQPLSLDCGHSFCQACLTANHKKSMLDKGESSCPVCRISYQPENIRPNRHVANIVEKLREVKLSPEGQKVDHCARHGEKLLLFCQEDGKVICWLCERSQEHRGHHTFLTEEVAREYQVKLQAALEMLRQKQQEAEELEADIREEKASWKTQIQYDKTNVLADFEQLRDILDWEESNELQNLEKEEEDILKSLTNSETEMVQQTQSLRELISDLEHRLQGSVMELLQGVDGVIKRTENVTLKKPETFPKNQRRVFRAPDLKGMLEVFRELTDVRRYWVDVTVAPNNISCAVISEDKRQVSSPKPQIIYGAPGTLFTFQTLTNFNYCTGILGSQSITSGKHYWEVDVSKKTAWILGVCAGFQPDAMCNIEKNENYQPKYGYWVIGLEEGVKCSAFQDSSFHTPSVPFIVPLSVIICPDRVGVFLDYEACTVSFFNITNHGFLIYKFSHCSFSQPVFPYLNPRKCGVPMTLCSPSS [human TRIM5α, 330-340 = GAPGTLFTFQTLT]”, the enrichment stood at 0.088 ± 0.12.
Then “MASGILVNVKEEVTCPICLELLTQPLSLDCGHSFCQACLTANHKKSMLDKGESSCPVCRISYQPENIRPNRHVANIVEKLREVKLSPEGQKVDHCARHGEKLLLFCQEDGKVICWLCERSQEHRGHHTFLTEEVAREYQVKLQAALEMLRQKQQEAEELEADIREEKASWKTQIQYDKTNVLADFEQLRDILDWEESNELQNLEKEEEDILKSLTNSETEMVQQTQSLRELISDLEHRLQGSVMELLQGVDGVIKRTENVTLKKPETFPKNQRRVFRAPDLKGMLEVFRELTDVRRYWVDVTVAPNNISCAVISEDKRQVSSPKPQIIYGAPGTLFTFQTLVNFNYCTGILGSQSITSGKHYWEVDVSKKTAWILGVCAGFQPDAMCNIEKNENYQPKYGYWVIGLEEGVKCSAFQDSSFHTPSVPFIVPLSVIICPDRVGVFLDYEACTVSFFNITNHGFLIYKFSHCSFSQPVFPYLNPRKCGVPMTLCSPSS [human TRIM5α, 330-340 = GAPGTLFTFQTLV]”, with 0.139 ± 0.17.
Then “MASGILVNVKEEVTCPICLELLTQPLSLDCGHSFCQACLTANHKKSMLDKGESSCPVCRISYQPENIRPNRHVANIVEKLREVKLSPEGQKVDHCARHGEKLLLFCQEDGKVICWLCERSQEHRGHHTFLTEEVAREYQVKLQAALEMLRQKQQEAEELEADIREEKASWKTQIQYDKTNVLADFEQLRDILDWEESNELQNLEKEEEDILKSLTNSETEMVQQTQSLRELISDLEHRLQGSVMELLQGVDGVIKRTENVTLKKPETFPKNQRRVFRAPDLKGMLEVFRELTDVRRYWVDVTVAPNNISCAVISEDKRQVSSPKPQIIYGAPGTLYPSFTNFNYCTGILGSQSITSGKHYWEVDVSKKTAWILGVCAGFQPDAMCNIEKNENYQPKYGYWVIGLEEGVKCSAFQDSSFHTPSVPFIVPLSVIICPDRVGVFLDYEACTVSFFNITNHGFLIYKFSHCSFSQPVFPYLNPRKCGVPMTLCSPSS [human TRIM5α, 330-340 = GAPGTLYPSFT]”, with 0.00614 ± 0.00012.
Then “MASGILVNVKEEVTCPICLELLTQPLSLDCGHSFCQACLTANHKKSMLDKGESSCPVCRISYQPENIRPNRHVANIVEKLREVKLSPEGQKVDHCARHGEKLLLFCQEDGKVICWLCERSQEHRGHHTFLTEEVAREYQVKLQAALEMLRQKQQEAEELEADIREEKASWKTQIQYDKTNVLADFEQLRDILDWEESNELQNLEKEEEDILKSLTNSETEMVQQTQSLRELISDLEHRLQGSVMELLQGVDGVIKRTENVTLKKPETFPKNQRRVFRAPDLKGMLEVFRELTDVRRYWVDVTVAPNNISCAVISEDKRQVSSPKPQIIYGAPGTLYQSLVNFNYCTGILGSQSITSGKHYWEVDVSKKTAWILGVCAGFQPDAMCNIEKNENYQPKYGYWVIGLEEGVKCSAFQDSSFHTPSVPFIVPLSVIICPDRVGVFLDYEACTVSFFNITNHGFLIYKFSHCSFSQPVFPYLNPRKCGVPMTLCSPSS [human TRIM5α, 330-340 = GAPGTLYQSLV]”, with 0.0984 ± 0.12; and “MASGILVNVKEEVTCPICLELLTQPLSLDCGHSFCQACLTANHKKSMLDKGESSCPVCRISYQPENIRPNRHVANIVEKLREVKLSPEGQKVDHCARHGEKLLLFCQEDGKVICWLCERSQEHRGHHTFLTEEVAREYQVKLQAALEMLRQKQQEAEELEADIREEKASWKTQIQYDKTNVLADFEQLRDILDWEESNELQNLEKEEEDILKSLTNSETEMVQQTQSLRELISDLEHRLQGSVMELLQGVDGVIKRTENVTLKKPETFPKNQRRVFRAPDLKGMLEVFRELTDVRRYWVDVTVAPNNISCAVISEDKRQVSSPKPQIIYGAPGTLYTFPSFTNFNYCTGILGSQSITSGKHYWEVDVSKKTAWILGVCAGFQPDAMCNIEKNENYQPKYGYWVIGLEEGVKCSAFQDSSFHTPSVPFIVPLSVIICPDRVGVFLDYEACTVSFFNITNHGFLIYKFSHCSFSQPVFPYLNPRKCGVPMTLCSPSS [human TRIM5α, 330-340 = GAPGTLYTFPSFT]”, with 0.193 ± 0.1; and “MASGILVNVKEEVTCPICLELLTQPLSLDCGHSFCQACLTANHKKSMLDKGESSCPVCRISYQPENIRPNRHVANIVEKLREVKLSPEGQKVDHCARHGEKLLLFCQEDGKVICWLCERSQEHRGHHTFLTEEVAREYQVKLQAALEMLRQKQQEAEELEADIREEKASWKTQIQYDKTNVLADFEQLRDILDWEESNELQNLEKEEEDILKSLTNSETEMVQQTQSLRELISDLEHRLQGSVMELLQGVDGVIKRTENVTLKKPETFPKNQRRVFRAPDLKGMLEVFRELTDVRRYWVDVTVAPNNISCAVISEDKRQVSSPKPQIIYGAPGTLYTFPSFVNFNYCTGILGSQSITSGKHYWEVDVSKKTAWILGVCAGFQPDAMCNIEKNENYQPKYGYWVIGLEEGVKCSAFQDSSFHTPSVPFIVPLSVIICPDRVGVFLDYEACTVSFFNITNHGFLIYKFSHCSFSQPVFPYLNPRKCGVPMTLCSPSS [human TRIM5α, 330-340 = GAPGTLYTFPSFV]”, with 0.194 ± 0.053.
